According to PubChem BioAssay (EPA / NIEHS):
For some of these results: What follows is the remainder of the data, with few or none of the hits. Records with an inconclusive call do not appear. This is a selection; strong and weak results do not stand in their true shares. Calls of active or inactive are those of the source. Rule for the calls, unless noted: active = hit-call score of the fitted dose curve at least 0.9, where 1 is the maximum; inactive = score below 0.9.

Columns and labels:
[1] = BSK_3C_Proliferation: Cell Proliferation Assessment in the BioMAP Diversity Plus: 3C Assay (AID 2283006); details: primary human endothelial cells (HUVEC);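 note: potency may reflect either rise or fall in cell number versus DMSO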
Outline: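 Proliferation of human vascular endothelial primary cells after 48 h dosing, quantified as SRB-stained protein at 560 nm relative to DMSO.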

[2] = read-out: Monokine induced gamma interferon (MIG), CXCL9 (gene 4283); assay: BSK_3C_MIG: BioMAP Diversity Plus: 3C Assay for Monokine induced gamma interferon (MIG) Biomarker Activity (AID 2283021); details: actives raise or lower the signal; primary human endothelial cells (HUVEC);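 note: MIG protein level measured by immunoassay in the treated endothelial cultures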
Outline: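 After 24 h of treatment, human umbilical vein endothelial cultures (3C system) had their MIG biomarker level determined by ELISA, with DMSO serving as negative control.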

[3] = read-out: Thrombomodulin, THBD (gene 7056); assay: BSK_3C_Thrombomodulin: BioMAP Diversity Plus: 3C Assay for Thrombomodulin Biomarker Activity (AID 2283029); details: actives raise or lower the signal; primary human endothelial cells (HUVEC)
Outline: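 Thrombomodulin ELISA, human primary HUVEC, 24 h post-dose; data fitted in both directions relative to DMSO.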

[4] = read-out: Monokine induced gamma interferon (MIG), CXCL9 (gene 4283); assay: BSK_hDFCGF_MIG: BioMAP Diversity Plus: hDFCGF Assay for Monokine induced gamma interferon (MIG) Biomarker Activity (AID 2283063); details: actives raise or lower the signal; primary human foreskin fibroblasts
Outline: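 ELISA read-out of MIG from primary human dermal fibroblasts 24 h post-dosing. Gain or loss of signal fitted bidirectionally, DMSO as baseline.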

[5] = read-out: Transforming growth factor beta 1 (TGFb1), TGFB1 (gene 7040); assay: BSK_KF3CT_TGFb1: BioMAP Diversity Plus: KF3CT Assay for Transforming growth factor beta 1 (TGFb1) Biomarker Activity (AID 2283072); details: actives raise or lower the signal; primary human keratinocytes with fibroblasts
Outline: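 Signal changes in either direction, relative to DMSO, define activity here. TGF-b1 is read by ELISA from a human keratinocyte-fibroblast co-culture 24 h post-dose.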

[6] = read-out: Interleukin-1 alpha (IL1a), IL1A (gene 3552); assay: BSK_LPS_IL1a: BioMAP Diversity Plus: LPS Assay for Interleukin-1 alpha (IL1a) Biomarker Activity (AID 2283080); details: actives raise or lower the signal; primary human HUVEC with PBMC
Outline: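 Human umbilical vein endothelial cells co-cultured with peripheral blood mononuclear cells were LPS-stimulated and exposed to test chemicals for 24 h. IL-1 alpha was quantified by ELISA, with bidirectional curve fitting against DMSO as the negative control and baseline.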

CD40, CD40 (gene 958) = assay: BSK_SAg_CD40: BioMAP Diversity Plus: SAg Assay for CD40 Biomarker Activity (AID 2283088); details: actives raise or lower the signal; primary human HUVEC with PBMC
Outline: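 Human umbilical vein endothelial cells co-cultured with PBMC; CD40 levels measured by ELISA with fluorescence read-out 24 h after chemical dosing. Gain or loss of signal fitted bidirectionally against DMSO baseline.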

[7] = target: human Adenosine Transporter (Adot), SLC29A1 (gene 2030) (UniProt Q99808); assay: NVS_TR_hAdoT: NovaScreen (NVS) Transporter Assay for human Adenosine Transporter (Adot) (AID 2283368; active = hit-call score of the fitted dose curve at least 0.9, where 1 is the maximum)
Outline: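 U937-derived membranes, cell-free radioligand binding, filter scintillation 1 h after dosing. 25 uM duplicate screen; hits (e.g. 30% inhibition) run in concentration-response up to 50 uM; loss of signal versus DMSO.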

[8] = read-out: ABC Transporter (ABCC3), ABCC3 (gene 8714); assay: LTEA_HepaRG_ABCC3: Life Technologies and Expression Analysis (LTEA) Assay for ABC Transporter (ABCC3) using HepaRG (AID 2283462); details: actives raise or lower the signal; mRNA level, 48 h
Outline: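 HepaRG cells in serum-free induction medium were exposed for 48 h in duplicate to 8-point half-log concentrations topping at 100 uM in 0.5% DMSO. ABCC3 mRNA was measured by qRT-PCR normalized to ACTB, GAPDH and POLR2A, with bidirectional fitting versus DMSO.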

[9] = read-out: Fatty Acid-Binding Protein 1 (FABP1), FABP1 (gene 2168); assay: LTEA_HepaRG_FABP1: Life Technologies and Expression Analysis (LTEA) Assay for Fatty Acid-Binding Protein 1 (FABP1) using HepaRG (AID 2283494); details: actives raise or lower the signal; mRNA level, 48 h
Outline: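 Differentiated human HepaRG cells exposed 48 h in serum-free induction medium to eight half-log concentrations up to 100 uM (0.5% DMSO), duplicate. FABP1 mRNA by qRT-PCR, normalised to ACTB, GAPDH, POLR2A; bidirectional fitting against DMSO.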

[10] = read-out: sulfotransferase 2A1 (SULT2A1), SULT2A1 (gene 6822); assay: LTEA_HepaRG_SULT2A1: Life Technologies and Expression Analysis (LTEA) Assay for sulfotransferase 2A1 (SULT2A1) using HepaRG (AID 2283531); details: actives raise or lower the signal; mRNA level, 48 h
Outline: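 Differentiated human HepaRG cells in serum-free induction medium were exposed for 48 h to eight half-log concentrations (top 100 uM, 0.5% DMSO). SULT2A1 mRNA was measured by qRT-PCR, normalized to ACTB, GAPDH and POLR2A, and fitted bidirectionally against DMSO.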

[11] = ATG_M_19_XSP2: Attagene TRANS-FACTORIAL Multi-Species (XSP2) HepG2 Assay for M32 Transcription Factor (Internal Marker) (AID 2283822; active = hit-call score of the fitted dose curve at least 0.9, where 1 is the maximum)
Outline: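 Internal background marker in a multi-species nuclear receptor TRANS panel: transfected HepG2 cells exposed 24 h, with 3 nM 6-alpha-fluorotestosterone and 1.5 nM norgestrel present. Readout is RT-PCR of reporter transcripts resolved by capillary electrophoresis, gain-of-signal versus DMSO.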

[12] = target: human Peroxisome Proliferator-activated Receptor delta (PPARd), PPARD (gene 5467) (UniProt Q03181); assay: ATG_PPARd_TRANS: Attagene TRANS-FACTORIAL HepG2 Assay for human Peroxisome Proliferator-activated Receptor delta (PPARd) (AID 2283002; active = hit-call score of the fitted dose curve at least 0.9, where 1 is the maximum)
Outline: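 HepG2 cells transiently transfected with GAL4-UAS multiplexed reporter units driven by exogenous chimeric NR-GAL4 proteins; 24 h compound exposure. Reporter mRNA measured by RT-PCR, 6-FAM primer extension, HpaI digestion and capillary electrophoresis; gain of signal fitted relative to DMSO.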

[13] = target: human Thyroid Receptor alpha (THRa1), THRA (gene 7067) (UniProt P10827); assay: ATG_THRa1_TRANS: Attagene TRANS-FACTORIAL HepG2 Assay for human Thyroid Receptor alpha (THRa1) (AID 2283014; active = hit-call score of the fitted dose curve at least 0.9, where 1 is the maximum)
Outline: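 HepG2 cells transiently transfected with multiplexed GAL4-UAS reporter units for exogenous chimeric THRa1-Gal4; reporter mRNA measured 24 h after dosing by RT-PCR, 6-FAM labelling, HpaI digestion and capillary electrophoresis. Gain-of-signal fitted versus DMSO baseline.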

[14] = target: Cellular tumor antigen p53 (Homo sapiens) (UniProt P04637); assay: TOX21_p53_BLA_p2_ratio: Tox21 HCT-116 p53 Agonism Beta-lactamase Assay, Ratio, Phase 2 (AID 2283592; active = hit-call score of the fitted dose curve at least 0.9, where 1 is the maximum)
Outline: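 HCT116 cells carrying a p53-responsive beta-lactamase reporter were plated, incubated 5 h at 37C, then dosed with compounds in DMSO (217-fold dilution) for 16 h. CCF4-AM substrate was added for 2 h at room temperature; the 460/530 nm emission ratio gave gain-of-signal activity relative to DMSO.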

[15] = tested on: Sodium/Iodide Symporter (NIS), SLC5A5 (gene 6528); assay: CPHEA_Stoker_NIS_Inhibition_RAIU: CPHEA's Radioactive Iodide Uptake (RAIU) Assay for Sodium/Iodide Symporter (NIS) Inhibition, Stoker and Laws Labs (AID 2283841; active = hit-call score of the fitted dose curve at least 0.9, where 1 is the maximum)
Outline: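 Iodide uptake read as CPM of intracellular 125I (final 329 pM) after 2 h room-temperature exposure in HEPES-buffered HBSS, pH 7.4. Human NIS-expressing HEK293T cells; six concentrations 0.001–100 uM, 0.5% DMSO, normalised to DMSO wells.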

Measured: AC50

Chain of UniProt Q03181 (Q03181 whole entry, looked up, the tested form may be a part): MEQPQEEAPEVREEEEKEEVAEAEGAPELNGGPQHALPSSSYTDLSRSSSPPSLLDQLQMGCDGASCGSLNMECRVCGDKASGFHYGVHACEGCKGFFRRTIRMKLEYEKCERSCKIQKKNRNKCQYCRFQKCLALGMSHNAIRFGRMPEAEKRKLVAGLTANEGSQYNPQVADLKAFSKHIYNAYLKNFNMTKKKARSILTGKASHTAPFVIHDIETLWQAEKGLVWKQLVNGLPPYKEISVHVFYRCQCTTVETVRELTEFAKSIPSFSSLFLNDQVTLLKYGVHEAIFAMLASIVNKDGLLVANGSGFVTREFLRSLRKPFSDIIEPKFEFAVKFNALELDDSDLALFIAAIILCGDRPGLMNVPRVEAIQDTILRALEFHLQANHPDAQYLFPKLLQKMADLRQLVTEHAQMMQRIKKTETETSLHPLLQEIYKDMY
Chain of UniProt Q99808 (Q99808 whole entry, looked up): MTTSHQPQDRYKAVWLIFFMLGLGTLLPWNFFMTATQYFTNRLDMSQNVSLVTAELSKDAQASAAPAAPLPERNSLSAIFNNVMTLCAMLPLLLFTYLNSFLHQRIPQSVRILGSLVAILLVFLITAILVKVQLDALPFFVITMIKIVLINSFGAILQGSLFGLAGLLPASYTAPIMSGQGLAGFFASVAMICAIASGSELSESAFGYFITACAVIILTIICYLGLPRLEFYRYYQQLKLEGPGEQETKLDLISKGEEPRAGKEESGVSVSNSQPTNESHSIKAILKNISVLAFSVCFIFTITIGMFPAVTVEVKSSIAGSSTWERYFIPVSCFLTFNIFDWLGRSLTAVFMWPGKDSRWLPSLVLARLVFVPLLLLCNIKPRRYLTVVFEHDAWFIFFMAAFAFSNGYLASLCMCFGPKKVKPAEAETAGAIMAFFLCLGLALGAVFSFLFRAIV
Chain of UniProt P04637 (P04637 whole entry, looked up): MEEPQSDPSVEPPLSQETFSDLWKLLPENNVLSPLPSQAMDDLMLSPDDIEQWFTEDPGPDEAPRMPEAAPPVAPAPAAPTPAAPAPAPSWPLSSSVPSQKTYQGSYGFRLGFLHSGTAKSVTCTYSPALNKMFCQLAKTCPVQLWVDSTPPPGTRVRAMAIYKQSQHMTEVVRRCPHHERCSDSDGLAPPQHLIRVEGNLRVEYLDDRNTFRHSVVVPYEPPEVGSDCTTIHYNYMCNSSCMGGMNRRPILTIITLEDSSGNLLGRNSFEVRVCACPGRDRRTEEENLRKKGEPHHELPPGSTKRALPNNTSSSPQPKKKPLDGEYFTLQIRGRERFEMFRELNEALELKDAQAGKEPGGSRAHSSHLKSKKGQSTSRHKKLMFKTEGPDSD
Chain of UniProt P10827 (P10827 whole entry, looked up, the tested form may be a part): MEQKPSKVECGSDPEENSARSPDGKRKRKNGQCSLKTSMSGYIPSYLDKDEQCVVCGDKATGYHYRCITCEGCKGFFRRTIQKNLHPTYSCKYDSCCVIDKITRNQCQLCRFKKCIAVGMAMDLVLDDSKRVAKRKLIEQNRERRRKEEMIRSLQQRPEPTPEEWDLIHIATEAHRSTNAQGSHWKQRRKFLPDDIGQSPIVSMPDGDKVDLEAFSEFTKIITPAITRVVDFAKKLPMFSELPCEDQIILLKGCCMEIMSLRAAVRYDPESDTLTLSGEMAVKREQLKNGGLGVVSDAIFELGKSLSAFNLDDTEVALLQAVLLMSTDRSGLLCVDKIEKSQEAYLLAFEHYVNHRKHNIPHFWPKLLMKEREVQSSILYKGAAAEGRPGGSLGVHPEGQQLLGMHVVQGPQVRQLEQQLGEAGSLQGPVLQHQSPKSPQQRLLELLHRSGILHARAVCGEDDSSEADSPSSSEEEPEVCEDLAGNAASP

CCN(CC)C(=S)SSC(=S)N(CC)CC
inactive: [7] | [8] | [9] | [10] | [11]
active: [1] 10.3 µM | [2] 36.9 µM | [3] 29.8 µM | [4] 1.87 µM | [5] 10.9 µM | [6] 20 µM | CD40, CD40 (gene 958) 32 µM

CC(Cc1ccc(O)c(O)c1)C(C)Cc1ccc(O)c(O)c1 (stereo unspecified)
active: [14] 47.3 µM | [15] 9.92 µM
inactive: [12] | [13]
